Assay results published in US7354734B2, “Fungal proteins and nucleic acids encoding same” (priority 2003, dated 2008).

Tested on: desMet-G-CSF
Assay: Digestion of desMet-G-CSF with DPPIV
Conditions: overnight 37° C., E/S 1/20 (w:w)
Procedure: The freeze-dried material was suspended at a 1 mg/ml concentration in 50 mM Tris-HCl, pH 7.5 containing 0.1% Sarcosyl and incubated overnight at 37° C. with DPPIV at an E/S ratio of 1/20 (w:w). The protein was isolated by RP-HPLC as before and characterized by ESI-MS (FIGS. 13A and B).

With “ruDPPIV: T. rubrum dipeptidylpeptidase IV (SEQ ID NO: 35)” the “cleavage of N-terminal dipeptide of desMet-G-CSF” value was “cleavage of the N-terminal dipeptide Thr-Pro”.
